Test results: PubChem BioAssay AID493035 (The Scripps Research Institute Molecular Screening Center, 2011)
In all, about 2,000 compounds went through this assay and about 45 (2%) were called active.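 How the source made its calls: active means inhibition above the mean of all tested compounds plus 3 SD (cut at about 49% in these data); inactive means the rest.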 This is one part of the list.

Molecular target: Perilipin-5 (Homo sapiens) + 1-acylglycerol-3-phosphate O-acyltransferase ABHD5 (Homo sapiens) (UniProt Q00G26+Q8WTS1)
UniProt Q00G26, sequence (Q00G26 whole entry, looked up): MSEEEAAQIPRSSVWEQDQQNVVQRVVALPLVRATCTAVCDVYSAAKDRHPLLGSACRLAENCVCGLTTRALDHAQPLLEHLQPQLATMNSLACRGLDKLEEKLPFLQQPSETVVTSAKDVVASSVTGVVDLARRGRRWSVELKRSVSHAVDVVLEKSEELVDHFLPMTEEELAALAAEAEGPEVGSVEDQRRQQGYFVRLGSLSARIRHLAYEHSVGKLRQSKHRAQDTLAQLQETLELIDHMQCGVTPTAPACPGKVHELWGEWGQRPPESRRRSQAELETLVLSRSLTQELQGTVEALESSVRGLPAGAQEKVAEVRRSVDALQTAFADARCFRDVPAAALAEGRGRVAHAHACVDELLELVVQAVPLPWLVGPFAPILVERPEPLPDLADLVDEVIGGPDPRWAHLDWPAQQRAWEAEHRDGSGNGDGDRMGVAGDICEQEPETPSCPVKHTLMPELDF
UniProt Q00G26, sequence (Q8WTS1 whole entry, looked up): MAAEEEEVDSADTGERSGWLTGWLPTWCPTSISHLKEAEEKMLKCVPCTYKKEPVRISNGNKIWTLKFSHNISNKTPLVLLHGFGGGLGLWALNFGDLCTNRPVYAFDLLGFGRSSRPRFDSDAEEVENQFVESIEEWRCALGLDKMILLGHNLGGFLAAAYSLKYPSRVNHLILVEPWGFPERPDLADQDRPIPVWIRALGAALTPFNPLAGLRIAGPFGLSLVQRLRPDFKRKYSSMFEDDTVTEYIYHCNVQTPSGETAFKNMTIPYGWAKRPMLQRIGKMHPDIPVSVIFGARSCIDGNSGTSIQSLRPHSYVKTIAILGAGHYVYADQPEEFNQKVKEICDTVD
Assay: ABHD5-PLIN5 interaction inhibitors, pilot screen, cell lysate, split luciferase complementation, luminescence, NIH validation set (AID 493035);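 further: 0% = DMSO only wells while the 100% control is not stated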
Conditions: split G. princeps luciferase complementation, lysates, 4 h; at 7.9 µM, stronger effect = higher value

SMILES | inhibition
CCCc1c(OCCCCc2nn[nH]n2)ccc(C(C)=O)c1O | inactive: 3.16%
C=CCc1cccc2cc(C(=O)Nc3ccc(CC(=O)O)cc3)c(=O)oc12 | inactive: -5.87%
CCN1CCN(C(=O)N[C@@H](C(=O)N[C@@H]2C(=O)N3[C@@H]2SC(C)(C)[C@@H]3C(=O)O)c2ccccc2)C(=O)C1=O | inactive: -3.37%
CCc1cc2c(C)cc(=O)oc2cc1OC(=O)C1CCCN1C(=O)OC(C)(C)C (centres undefined) | inactive: -2.49%
COc1cc(CNc2nnnn2C)ccc1OCc1ccc(F)cc1Cl | inactive: 2.43%
O=C(COc1ccc2c(-c3ccccc3)cc(=O)oc2c1)NCc1cccs1 | inactive: 9.91%
O=c1cc(-c2ccccc2)oc2cc(OCc3ccccc3)cc(O)c12 | inactive: -10.6%
C/C(=N\N=C1\NC(=O)C(CC(=O)Nc2ccc(Cl)cc2)S1)c1ccco1 (centres undefined) | inactive: 15.2%
CC(C)Cc1cc(C(=O)N2CCC(N3CCC(C(=O)N4CCCC4)CC3)CC2)n[nH]1 | inactive: -3.07%
Nc1nc(SCc2ccc([N+](=O)[O-])cc2)c2ncn(C3OC(CO)C(O)C3O)c2n1 (centres undefined) | inactive: -2.31%
CCOc1ccc2nc(NC(=O)NC3CCCCC3)sc2c1 | inactive: -7.09%
O=C(N1CCCCC1)C1(c2ccccc2)CCOCC1 | inactive: -5.27%
CCCC(=O)Nc1ncnc2c1ncn2[C@@H]1O[C@@H]2COP(=O)(O)O[C@H]2[C@H]1OC(=O)CCC | inactive: -7.86%
Cc1ccc(CN2CCN(Cc3cn[nH]c3C3CCCCC3)CC2CCO)cc1 (centres undefined) | inactive: -7.54%
O=C(c1cccnc1)N1N=C(C2CC2)CC1(O)C(F)(F)F (centres undefined) | inactive: 2.77%
COC(=O)c1ccc(C(=O)OC)c(NC(=O)C(C)C)c1 | inactive: -13.5%
COCc1cc(=O)[nH]c(Nc2nc3ccccc3o2)n1 | inactive: 0.3%
CC1CCCc2sc3ncn(N)c(=N)c3c21 (centres undefined) | inactive: -6.43%
O=c1oc2c(CN3CCCCC3)c(O)ccc2c2c1CCCCC2 | inactive: 6.3%
CC(=O)[C@@H]1[C@@H](C(=O)c2ccc(C)cc2)[C@]2(C(=O)Nc3ccccc32)[C@H]2C=Cc3cc(F)ccc3N12 | inactive: 9.57%
COc1ccc2c(c1O)Cc1ccccc1C2=O | inactive: 13.4%
CC(=O)Nc1ccc2[nH]c(C)c(CC=C(Cl)Cl)c(=O)c2c1 | inactive: -10.7%
O=C(O)c1ccccc1C(=O)OCCCCOC(=O)c1ccccc1C(=O)O | inactive: -1.56%
CC(=O)OCC#CCSc1nc2ccccc2n1C | inactive: -5.15%

SMILES | inhibition
CCCC(=O)O[C@]1(C(=O)COC(C)=O)CC[C@H]2[C@@H]3C[C@H](F)C4=CC(=O)C=C[C@]4(C)[C@@]3(F)[C@@H](O)C[C@@]21C | inactive: 5.29%
Cn1nnnc1SCC1=C(C(=O)O)N2C(=O)[C@@H](NC(=O)[C@H](O)c3ccccc3)[C@H]2SC1 | inactive: 7.59%
O=C(NNC(=O)c1cccs1)c1ccco1 | inactive: -7.31%
COC(=O)C1=C(C)N(C)C(=S)NC1c1ccc(Cl)cc1 (centres undefined) | inactive: -3.32%
OCCN1CCN(CCCN2c3ccccc3Sc3ccc(Cl)cc32)CC1 | inactive: -1.53%
CCn1c(O)c(/C=C2\C=Nc3ccccc32)sc1=O | inactive: 5.41%
Nc1ccc(S(=O)(=O)c2ccc(N)cc2)cc1 | inactive: -13.3%
O=c1c2ccccc2nnn1Cc1cccc2ccccc12 | inactive: 5.18%
C#CCN(C)Cc1ccccc1 | inactive: -11.8%
CCn1cc(C(=O)O)c(=O)c2ccc(C)nc21 | inactive: -6.24%
O=C(O)c1ccccc1OCCOc1ccccc1 | inactive: -3.26%
CC(=O)N(CCC(Cc1ccccc1)c1ccc2c(c1)OCO2)Cc1ccc(Cl)cc1 (centres undefined) | inactive: 7.18%
COc1ccc2cc(CCC(C)=O)ccc2c1 | inactive: -3.15%
CN/C(=C/[N+](=O)[O-])NCCSCc1ccc(CN(C)C)o1 | inactive: -2.37%
COc1cc2oc(-c3ccc(O)cc3)cc(=O)c2c(OC)c1O | inactive: 0.79%
O=C(CCCN1CC=C(n2c(=O)[nH]c3ccccc32)CC1)c1ccc(F)cc1 | inactive: -6.46%
CCN(CC)CCNC(=O)c1cc(S(C)(=O)=O)ccc1OC | inactive: -2.45%
COc1ccc2oc(=O)c(C(=O)Nc3ccccc3-c3ccccc3)cc2c1 | inactive: -5.51%
C=CCn1c(SCC(=O)NC2CCCCC2)nc2ccccc2c1=O | inactive: -1.42%
COc1cc2nc(N3CCN(C(=O)c4ccco4)CC3)nc(N)c2cc1OC | inactive: 0.42%
COc1ccc(OC)c(-n2c(Cn3c(-c4ccccn4)nc4ccccc43)n[nH]c2=S)c1 | inactive: -5.52%
CC(=O)Oc1ccc(C2OC(=O)c3ccccc3N2C(C)=O)cc1 (centres undefined) | inactive: 1.11%
CC(C)(C)OC(=O)NCCC(=O)Oc1ccc2ccc(=O)oc2c1 | inactive: -4.73%
CCc1cc2c(=O)c(-c3nc4ccccc4n3C)coc2c(CN2CCN(C)CC2)c1O | inactive: -1.12%

SMILES | inhibition
O=C(O)C1[C@H]2C(=O)N(C3CCCC3)C[C@]23C=C[C@H]1O3 (some centres undefined) | inactive: -13.3%
CC(=O)N1CC23C=CC(CC2CC12CCCCCC2)O3 (centres undefined) | inactive: -4.92%
CCN1CCN(C(=S)c2ccc(OC)cc2)CC1 | inactive: 14.8%
O=C1Cc2ccccc2C(c2ccccc2)N1 (centres undefined) | inactive: 6.97%
O=C(/C=C/c1ccccc1)c1ccccc1 | active: 69.7%
Cn1cc(CN2CCN(CCO)CC2)c(-c2ccc(Oc3ccccc3)cc2)n1 | inactive: -0.18%
Cc1nc(NC(CC(C)C)C(=O)O)c2nc(C)oc2n1 (centres undefined) | inactive: -9.78%
CCc1cc2c(=O)c(-c3nc(C)cs3)coc2cc1OC(C)C(=O)NCCO (centres undefined) | inactive: -5.89%
O=C(O)c1ccc(C(=O)C(=O)c2ccccc2)cc1 | inactive: -3.75%
COc1ccc(CCN2CCC(Nc3nc4ccccc4n3Cc3ccc(F)cc3)CC2)cc1 | inactive: -8.88%
O=C1CC[C@@H](CN(Cc2ccccc2)Cc2cn[nH]c2-c2cc3ccccc3o2)N1 | inactive: 5.78%
O=C(COc1ccc(F)cc1)OCCN1CCOCC1 | inactive: -5.24%
CCN(CC)CC#CCOC(=O)C(O)(c1ccccc1)C1CCCCC1 (centres undefined) | inactive: -9.21%
Cc1ncc([N+](=O)[O-])n1CCO | inactive: -2.22%
O=C(N/N=C/c1ccc([N+](=O)[O-])o1)c1ccc(O)cc1 | inactive: 3.38%
Cn1nc(-c2ccc(Cl)cc2)nc2c(=O)n(C)c(=O)nc1-2 | inactive: 42.7%
COc1ccccc1/C=C/CN1CCN(Cc2ccc(F)cc2)C(CCO)C1 (centres undefined) | inactive: -4.81%
COc1ccc2c3c([nH]c2c1)C1(NCC3)C(=O)Nc2ccccc21 (centres undefined) | inactive: -4.51%
NC(=O)c1ncn([C@@H]2O[C@H](CO)[C@@H](O)[C@H]2O)c1O | inactive: 8.18%
COc1ccccc1-c1ccc(/C=C2/C=C(CC(C)C)OC2=O)o1 | inactive: 7.79%
Cc1ccc2c(c1)c(=O)c1c3n2CCN(C(=O)CCl)C3CC1 (centres undefined) | inactive: 30.9%
CCc1cc(C(N)=S)ccn1 | inactive: -7.04%
COc1cc(C(=O)OCCCN(C)C)cc(OC)c1OC | inactive: -0.24%
O=C(OCC1CCCN2CCCCC12)c1ccc2c(c1)OCO2 (centres undefined) | inactive: 2.46%

SMILES | inhibition
CC1(C)C(=O)OC(/C=C\c2ccccc2)C(C)(C)C1=O (centres undefined) | inactive: -2.46%
CC[C@]1(O)CC2CN(CCc3c([nH]c4ccccc34)[C@@](C(=O)OC)(c3cc4c(cc3OC)N(C=O)[C@H]3[C@@](O)(C(=O)OC)[C@H](OC(C)=O)[C@]5(CC)C=CCN6CC[C@]43[C@@H]65)C2)C1 (some centres undefined) | inactive: 4.36%
CNCCC=C1c2ccccc2CCc2ccccc21 | inactive: -14.1%
O=C1C(Cc2ccccc2)NC(=S)N1c1ccccc1 (centres undefined) | inactive: -3.78%
O=C(c1ccccc1F)c1cc2c(cc1[N+](=O)[O-])OCCO2 | inactive: 2.64%
Cc1ccc(S(=O)(=O)NC(=O)Nc2cc(C)ccc2F)cc1 | inactive: -7.32%
O=C1OC(c2ccccc2)=C/C1=C/c1cccs1 | inactive: 3.52%
Cc1ccc(/C(=C\CN2CCCC2)c2ccccn2)cc1 | inactive: -3.06%
CCOc1ccc(NC2OC(C)C(O)C(O)C2O)c([N+](=O)[O-])c1 (centres undefined) | inactive: -5.81%
CC1(C)CC(O)(CNCc2ccc3c(c2)OCO3)CCO1 (centres undefined) | inactive: -10.1%
O=C(O)CCCN1C(=O)NC2NC(=O)NC21 (centres undefined) | inactive: 1.97%
O=C(NCCO)c1ccc2[nH]c3ccccc3c2c1 | inactive: -4.84%
COc1ccc(CN2CCCC(C(=O)c3ccc(Cl)cc3)C2)cc1Cn1cccn1 (centres undefined) | inactive: 5.67%
COC(=O)c1[nH]c2ccc(F)cc2c1NC(=O)C1=COCCO1 | inactive: 5.04%
CCOc1ccc(CC2c3cc(OCC)c(OCC)cc3CCN2C(=O)CN2CCN(C)CC2)cc1OCC (centres undefined) | inactive: -0.88%
COc1cc(C)nc(-n2nc(C)cc2OC)n1 | inactive: -2.37%
CS(=O)(=O)Nc1ccc([N+](=O)[O-])cc1Oc1ccccc1 | inactive: 6.42%
CC(=O)[C@@]1(O)CC[C@H]2[C@@H]3CCC4=CC(=O)CC[C@]4(C)[C@H]3[C@@H](O)C[C@@]21C | inactive: 4.44%
Cc1coc2cc3oc(=O)c(CCC(=O)O)c(C)c3cc12 | inactive: 3.12%
COc1ccc2c(c1OC)C(C1c3c(cc4c(c3OC)OCO4)CCN1C)OC2=O (centres undefined) | inactive: -2.55%
CC(=O)Oc1cc(C(C)C)c(OCCN(C)C)cc1C | inactive: -10.2%
CCc1cc(=O)oc2cc(OCc3nn[nH]n3)ccc12 | inactive: 2.44%
